Data as given in PubChem BioAssay AID1030 (National Center for Advancing Translational Sciences (NCATS), 2008).
The whole screen tested about 220,000 compounds, of which about 16,000 (7.3%) were called active. The inconclusive results got no clear call from the source; some entries with a clear call stand among them for comparison. The call rests on the fitted dose curve; in most records, active means well fitted inhibition curve with a large enough effect (not every such curve was filed as active); inconclusive means small, poorly fitted or top-dose-only effect, or another doubt; inactive means no such curve, though single readings can be large or run the other way. Potencies of inconclusive entries are left out as doubtful fits.

Target: Aldehyde dehydrogenase 1A1 (Homo sapiens) (UniProt P00352)
Chain of UniProt P00352 (P00352 whole entry, looked up): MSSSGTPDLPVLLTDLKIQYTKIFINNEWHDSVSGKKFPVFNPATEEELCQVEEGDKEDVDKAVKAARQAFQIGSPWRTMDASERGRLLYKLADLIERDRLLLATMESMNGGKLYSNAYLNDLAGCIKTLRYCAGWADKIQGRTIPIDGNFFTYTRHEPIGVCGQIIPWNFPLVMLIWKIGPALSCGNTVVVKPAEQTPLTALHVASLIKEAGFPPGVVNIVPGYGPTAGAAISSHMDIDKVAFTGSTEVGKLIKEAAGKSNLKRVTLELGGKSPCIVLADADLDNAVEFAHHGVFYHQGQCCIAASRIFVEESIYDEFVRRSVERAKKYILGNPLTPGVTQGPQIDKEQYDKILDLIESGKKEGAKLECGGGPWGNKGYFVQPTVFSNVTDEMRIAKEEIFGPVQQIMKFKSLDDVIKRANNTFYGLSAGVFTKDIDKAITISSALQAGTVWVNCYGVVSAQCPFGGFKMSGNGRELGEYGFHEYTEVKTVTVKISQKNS
Experiment: qHTS Assay for Inhibitors of Aldehyde Dehydrogenase 1 (ALDH1A1);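 on activity, negative = inhibition: plate controls were no enzyme wells and a reference inhibitor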
Conditions: Purified ALDH1A1, NADH fluorescence, propionaldehyde substrate; series mostly up to 75.3 µM
Potency means the concentration at half of the fitted maximal effect; tags describe the fitted curve by direction and shape.

Row | Compound | Potency | activity, negative = inhibition
1 | Oc1c(C(c2ccco2)N2CCOCC2)sc2ncnn12 (stereo not drawn) | active: 14.1 µM | 
2 | Cc1ccccc1CN(c1ccc(C(=O)NCCC2=CCCCC2)cc1)S(C)(=O)=O | inconclusive [inhibitor, partial curve] | 
3 | Cc1cc(C)c(S(=O)(=O)N2CCCC(C(=O)NCCC3=CCCCC3)C2)c(C)c1 (stereo not drawn) | inconclusive [inhibitor, single point] | 
4 | O=[N+]([O-])c1cc(CN2CCN(c3ccccc3)CC2)c(O)c2ncccc12 | inconclusive [inhibitor, single point] | 
5 | CCOC(=O)N1CCN(C(=O)CSCc2nc(-c3ccccc3C)oc2C)CC1 | inconclusive [inhibitor, single point] | 
6 | Cc1ccc(Nc2nc3nonc3[nH]c2=O)cc1Cl | inconclusive [inhibitor, single point] | 
7 | Nc1ncc2c(n1)CC(c1ccco1)CC2=O (stereo not drawn) | inconclusive [inhibitor, single point] | 
8 | O=C(CSc1nnc2scc(-c3ccccc3)n12)NCC1CCCO1 (stereo not drawn) | inactive | 
9 | C/C(=N\NC(=O)c1ccc(N(C)C)cc1)c1ccc(C)c(C)c1 | active: 14.1 µM | 
10 | COC(=O)C1(C(=O)OC)Sc2ccccc2C1=O | inconclusive [inhibitor, single point] | 
11 | Cc1ccc(N=C2S/C(=C\c3cn(CC(=O)O)c4ccccc34)C(=O)N2C)cc1 | inconclusive [inhibitor, single point] | 
12 | C=CCNc1nc(N)c(C(=C(C#N)C#N)c2ccc(Br)cc2)s1 | inconclusive [inhibitor, partial curve] | 
13 | CCOc1ccc(NS(=O)(=O)c2ccc(OC)c(NC(=O)c3ccc4c(c3)OCCO4)c2)cc1 | inconclusive [inhibitor, single point] | 
14 | COCCCn1c(SCC(=O)Nc2ccc(NC(=O)c3ccco3)c(OC)c2)nc2ccccc2c1=O | inconclusive [inhibitor, single point] | 
15 | O=C(CC(c1ccc(F)cc1)c1ccco1)Nc1nccs1 (stereo not drawn) | inconclusive [inhibitor, single point] | 
16 | NS(=O)(=O)c1ccc(CCNC(=O)CSc2nc3ccccc3c(=O)n2CCN2CCOCC2)cc1 | inactive | 
17 | CCCCn1c(NC(=O)C2CCCCC2)nc2ccccc21 | inconclusive [inhibitor, single point] | 
18 | c1ccc(CCCNc2nnnc3ccccc23)cc1 |  | inactive: -2.88% [at 13.5 µM]
19 | O=C(NCCc1ccccc1)c1ccc(NCC2CCCO2)c([N+](=O)[O-])c1 (stereo not drawn) | inconclusive [inhibitor, single point] | 
20 | Cc1cc([N+](=O)[O-])nn1Cc1ccc(C(=O)N/N=C/c2ccccc2)cc1 | inconclusive [inhibitor, single point] | 
21 | CC1CCN(C(=O)c2ccc3c(Cl)c4c(nc3c2)CCCC4)CC1 | active: 4.47 µM | 
22 | O=C(Cn1nc(-c2ccccc2)nc1-c1ccccc1)OC1CCCCC1 | inconclusive [inhibitor, single point] | 

Row | Compound | Potency | activity, negative = inhibition
23 | OC1(c2cccnc2)CCN(Cc2nnnn2C2CCCCC2)CC1 | inconclusive [inhibitor, single point] | 
24 | O=C(CC(=O)N1CCN(c2ccccn2)CC1)Nc1ccc2nc3n(c(=O)c2c1)CCCCC3 | inconclusive [inhibitor, partial curve] | 
25 | CN(C)c1ncc2nc(-c3ccccc3)c(=O)n(C3CC3)c2n1 | inconclusive [inhibitor, single point] | 
26 | CC1CCN(c2ccccc2NC(=O)c2ccc(N3CCOCC3)c([N+](=O)[O-])c2)CC1 | inactive | 
27 | Cc1ccc(-c2nnc(N3CCN(C(=O)c4cccs4)CC3)c3ccccc23)cc1 | inconclusive [inhibitor, partial curve] | 
28 | CC(C)N1C(=O)CCC1C(=O)N1CCCc2ccccc21 (stereo not drawn) | inactive | 
29 | CCOC(=O)c1oc2cccc(O)c2c1C | inactive | 
30 | CCOC(=O)c1ccc(NC(=O)Nc2c(C)nn(C)c2C)cc1 | inconclusive [inhibitor, single point] | 
31 | CC(C)C(C(=O)C=[N+]=[N-])N1C(=O)c2ccccc2C1=O (stereo not drawn) | inconclusive [inhibitor, single point] | 
32 | CCOC(=O)Cn1c(=O)oc2cc(S(=O)(=O)NCCCc3ccccc3)ccc21 | inconclusive [inhibitor, full curve, poor fit] | 
33 | CCN(CC)C(=O)CSc1nc2ccccc2c(=O)n1-c1cccc(OC)c1 | inconclusive [inhibitor, single point] | 
34 | COc1cc2cc(C(c3nnnn3C(C)(C)C)N3CCc4ccccc43)c(=O)[nH]c2cc1OC (stereo not drawn) | inactive | 
35 | CCOc1ccc(N2C(=O)CC(N3CC(C)OC(C)C3)C2=O)cc1 (stereo not drawn) | inconclusive [inhibitor, single point] | 
36 | CCn1c(O)c(C=NC2CCCC2)sc1=S | inconclusive [inhibitor, single point] | 
37 | O=C(Cn1cc(SCc2ccc(F)cc2)c2ccccc21)N1CCOCC1 | inconclusive [inhibitor, single point] | 
38 | O=C(CN(Cc1ccc2c(c1)OCO2)C(=O)CNS(=O)(=O)c1ccccc1)NCc1ccco1 | active: 4.47 µM | 
39 | CC(C)CNC(=O)NC(=O)COc1ccc(C=O)cc1 | inconclusive [inhibitor, partial curve] | 
40 | Cc1cccc(Nc2nc(-c3c(C)nc4ccccn34)cs2)c1 | inconclusive [inhibitor, single point] | 
41 | COc1cc(/C=C/C(=O)NCc2nc3ccccc3[nH]2)cc(OC)c1OC | inconclusive [inhibitor, single point] | 
42 | CN1CCN(c2ccccc2NC(=O)c2ccc(-c3ccc(Cl)cc3Cl)o2)CC1 | inconclusive [inhibitor, single point] | 
43 | CC1=C(C#N)C(c2cccnc2)C2=C(CC(C)(C)CC2=O)N1 (stereo not drawn) | inconclusive [inhibitor, partial curve] | 
